Data from patent US20060223729A1, “Photodynamic inactivation of bacterial spores” (priority 2003, published 2006).

System: B. cereus spores
Assay: Photodynamic inactivation (PDI) of B. cereus spores, colony-forming units
Format: cell-based, B. cereus (ATCC14579)
Experimental: The bacteria studied in the following examples were B. atrophaeus (ATCC 9372), B. cereus (ATCC14579), B. thuringiensis (ATCC 33740) and B. subtilis (ATCC 6051). Growing bacterial cells were cultivated in brain-heart infusion (BHI) broth at 37° C. Aliquots of the suspension (10^8/mL) were stored at −80° C. and then used for the experiments.
For initial experiments spores of B. atrophaeus and B. cereus were purchased from SGM Biotech, Inc (Bozeman, Mont., USA). For subsequent experiments spores of all species were prepared in the laboratory using sporulation broth for B. atrophaeus and B. subtilis, or sporulation agar (Caipo et al., 2002; Nicholson & Setlow, 1990) for B. cereus and B. thuringiensis. The sporulation medium consisted of 16.0 g nutrient broth (Difco), 2.0 g KCl, 0.5 g MgSO4; 17 g of agar. The pH of the medium was adjusted to 7, then autoclaved and cooled. After cooling 1 ml of 1M […], 1 ml of 0.1 M MnCl2.4H2O, 1 ml of 1 mM FeSO4 and 2 ml 50% glucose were added. For spore purification the mixture of spores and cells was centrifuged at 1300 g for 20 min, washed with SX volume 1 M KCl/0.5 M NaCl, rinsed with sterile deionized water, then washed with 1 M NaCl, and rinsed with sterile deionized water again. Lysozyme (50 μg/mL) was added in the presence of buffer (5× volume Tris Cl, 0.05 M, pH 7 2), and incubated with constant stirring at 4° C. overnight. […]

Cc1cc2nc3ccc(N(C)C)cc3[s+]c2cc1N.[Cl-] [TBO, Toluidine Blue O]
effect of tenfold dilution of spore suspension on killing for a given fluence: increase in amount of spore killing
